Experimental findings from the supplement of paper PMC3334620 are described below.

In all, about 33,000 sequences were measured (“E-score (-0.5 to 0.5)”: median about -0.053, highest 2% from about 0.37 on). Some of the results follow.

Sequence of UniProt P0CE41 (P0CE41 whole entry, the tested form may be a part): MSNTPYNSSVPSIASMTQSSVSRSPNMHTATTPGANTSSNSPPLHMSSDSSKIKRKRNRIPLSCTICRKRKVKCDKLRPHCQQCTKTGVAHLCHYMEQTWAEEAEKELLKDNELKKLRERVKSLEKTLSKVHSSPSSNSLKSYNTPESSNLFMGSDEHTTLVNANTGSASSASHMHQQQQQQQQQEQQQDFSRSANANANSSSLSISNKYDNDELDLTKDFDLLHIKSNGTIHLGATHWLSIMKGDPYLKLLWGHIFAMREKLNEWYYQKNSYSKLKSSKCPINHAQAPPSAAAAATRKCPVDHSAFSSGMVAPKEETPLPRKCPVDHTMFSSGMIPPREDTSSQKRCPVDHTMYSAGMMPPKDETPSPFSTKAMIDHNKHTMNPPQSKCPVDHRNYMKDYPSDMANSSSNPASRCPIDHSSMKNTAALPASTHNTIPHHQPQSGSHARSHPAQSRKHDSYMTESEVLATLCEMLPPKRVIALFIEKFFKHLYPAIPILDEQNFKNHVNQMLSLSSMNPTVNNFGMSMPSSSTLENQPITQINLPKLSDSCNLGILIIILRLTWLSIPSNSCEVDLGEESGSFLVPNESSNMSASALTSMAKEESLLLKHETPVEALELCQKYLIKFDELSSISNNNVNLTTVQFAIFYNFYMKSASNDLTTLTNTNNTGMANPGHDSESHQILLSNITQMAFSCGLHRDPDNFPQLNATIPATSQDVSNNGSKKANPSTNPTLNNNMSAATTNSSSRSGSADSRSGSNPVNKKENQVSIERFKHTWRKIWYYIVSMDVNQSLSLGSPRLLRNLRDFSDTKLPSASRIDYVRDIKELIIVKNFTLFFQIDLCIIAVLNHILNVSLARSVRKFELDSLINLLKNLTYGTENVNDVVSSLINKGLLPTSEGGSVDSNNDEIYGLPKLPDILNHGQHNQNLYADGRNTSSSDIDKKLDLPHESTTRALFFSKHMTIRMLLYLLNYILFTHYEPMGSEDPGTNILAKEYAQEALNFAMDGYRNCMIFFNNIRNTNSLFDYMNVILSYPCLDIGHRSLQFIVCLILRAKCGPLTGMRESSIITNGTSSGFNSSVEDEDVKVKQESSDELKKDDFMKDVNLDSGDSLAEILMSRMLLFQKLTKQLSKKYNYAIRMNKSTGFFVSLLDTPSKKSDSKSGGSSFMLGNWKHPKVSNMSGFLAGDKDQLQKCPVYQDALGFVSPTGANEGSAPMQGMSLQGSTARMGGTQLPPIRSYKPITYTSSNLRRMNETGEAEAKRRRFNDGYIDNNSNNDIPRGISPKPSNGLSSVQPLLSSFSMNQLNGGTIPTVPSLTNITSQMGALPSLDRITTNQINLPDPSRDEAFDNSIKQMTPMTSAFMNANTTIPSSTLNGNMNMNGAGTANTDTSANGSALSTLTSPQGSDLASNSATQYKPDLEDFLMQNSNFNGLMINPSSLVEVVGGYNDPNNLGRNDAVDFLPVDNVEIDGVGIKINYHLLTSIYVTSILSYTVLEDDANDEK

The target in this assay is Hap1 (UniProt P0CE41). Description: PBM E-score (8-mer binding enrichment) (E-score (-0.5 to 0.5)); higher = stronger / more preferred TF binding; most listed sequences are background and not binding sites. The note with it: protein concentration: 200 nM; construct: GST-DNA-binding domain. The procedure, abridged:
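Yeast transcription factors carrying a GST tag, as full-length proteins or DNA-binding domains, were produced by PURExpress in vitro transcription/translation. About 100-200 nM protein was applied to universal all-10-mer Agilent arrays, double-stranded by primer extension on fresh or once-stripped slides. Bound protein was detected with fluorescent anti-GST, and scans were normalised with masliner. The Universal PBM Analysis Suite gave each ungapped eight-base word, pooled with its reverse complement, an E-score, a modified Wilcoxon-Mann-Whitney statistic.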
Consider CCGTGGGA, for which the “PBM E-score” value was -0.0827.

As for CGTCGTAG, the “PBM E-score” value stood at 0.0884.

Turning to CGAGCGAA, the “PBM E-score” value is 0.196.

With TTGCCCAA, the “PBM E-score” value is -0.138.

For the sequence GTCGAGAC, the “PBM E-score” value is -0.0569.

As for GGCGAGAA, the “PBM E-score” value was found to be 0.182.

Consider CCTTGACC, for which the “PBM E-score” value is 0.06.

For the sequence AGTCCGTG, the “PBM E-score” value worked out at 0.299.

Take CTGAACTA: the “PBM E-score” value is -0.0914.

As to AACTCATG, the “PBM E-score” value is -0.219.

With GAGGGTCC, the “PBM E-score” value was 0.0576.

Regarding AATTGCAG, the “PBM E-score” value was -0.0487.

As to ACGGCACG, the “PBM E-score” value turned out to be 0.0179.

Consider TACTCACA, for which the “PBM E-score” value is -0.221.

For the sequence CGTATGTA, the “PBM E-score” value was 0.0209.

As for ATTGATAC, the “PBM E-score” value was 0.091.

Turning to CACATAAA, the “PBM E-score” value was -0.107.

In the case of GGTGTGAC, the “PBM E-score” value was -0.0815.

As for CAACACTC, the “PBM E-score” value stood at 0.0258.

In the case of CGCCCATA, the “PBM E-score” value was 0.0299.

For TAGTCAGA, the “PBM E-score” value is -0.275.

Consider GCCGTGTA, for which the “PBM E-score” value was -0.00583.

With GCCGACCC, the “PBM E-score” value was 0.139.

On to ACTGTTGC, for which the “PBM E-score” value was -0.00311.

Regarding AGCTAAGA, the “PBM E-score” value was -0.0182.

Regarding GAGTCAAA, the “PBM E-score” value is -0.0999.

Regarding ACGTCATC, the “PBM E-score” value is -0.092.

Consider CATTCTCG, for which the “PBM E-score” value was found to be 0.00612.

Take CCATGGGC: the “PBM E-score” value came out at 0.0325.

In the case of CCCCGCAC, the “PBM E-score” value was 0.138.

With AATGTAAC, the “PBM E-score” value worked out at 0.0419.

On to AGCAAATC, for which the “PBM E-score” value is -0.0751.

With GGAGAGGA, the “PBM E-score” value was -0.136.

AGGGTCAC: the “PBM E-score” value was -0.193.

Consider CCAATCCG, for which the “PBM E-score” value amounted to 0.284.

Take GAGGGTTA: the “PBM E-score” value is -0.232.

For TAAATGTA, the “PBM E-score” value was -0.193.

CTCGAAGA: the “PBM E-score” value is -0.152.

With ATCTAGAC, the “PBM E-score” value is -0.221.

GTCTGAGA: the “PBM E-score” value was -0.168.

For the sequence GACTTCCA, the “PBM E-score” value was -0.115.

With CATCTCAA, the “PBM E-score” value was -0.286.

As for AAATCTCA, the “PBM E-score” value was -0.172.

In the case of TGACCGCA, the “PBM E-score” value was found to be 0.109.

Take CAGAATAC: the “PBM E-score” value was -0.00685.

With CGCTCAGC, the “PBM E-score” value is -0.031.

For the sequence CGAGTGAA, the “PBM E-score” value was -0.0112.

As for GAAATGTA, the “PBM E-score” value worked out at 0.168.

As to CGTCTGCA, the “PBM E-score” value is -0.287.

As to AGATGTTA, the “PBM E-score” value was -0.252.

As to TGAATTCA, the “PBM E-score” value was -0.171.

For the sequence AAAAAGTT, the “PBM E-score” value was -0.168.

GGACATCA: the “PBM E-score” value came out at 0.132.

On to CAGATACG, for which the “PBM E-score” value was 0.0074.

For AAACGCCT, the “PBM E-score” value was -0.114.

Take AGATATGA: the “PBM E-score” value was -0.0245.

Take CCACGTCA: the “PBM E-score” value is -0.178.

In the case of GATCGTGA, the “PBM E-score” value is -0.0824.

For the sequence ACCGGCTA, the “PBM E-score” value turned out to be 0.152.

As for GGAAGCGA, the “PBM E-score” value worked out at 0.0691.

GCTTGACC: the “PBM E-score” value was -0.0496.

As to AAGGATAA, the “PBM E-score” value is -0.214.

As for AAAGGAGA, the “PBM E-score” value is -0.212.

On to AGAAACGC, for which the “PBM E-score” value was -0.00268.

With ATGTCCGG, the “PBM E-score” value is 0.468.

For the sequence GGCAGGTA, the “PBM E-score” value worked out at 0.0138.

As to CCAAGGTA, the “PBM E-score” value was -0.102.

As to AAAGACTC, the “PBM E-score” value is -0.227.

With ATATTAGA, the “PBM E-score” value was found to be 0.0389.

In the case of GTGTTAAA, the “PBM E-score” value was -0.159.

For CCATGCCG, the “PBM E-score” value came out at 0.205.

On to AAGGACAG, for which the “PBM E-score” value was -0.182.

As to GTTAGGTA, the “PBM E-score” value is -0.0541.

Take ATATCGTA: the “PBM E-score” value came to 0.11.

As for CTGCGAAC, the “PBM E-score” value is -0.346.

In the case of AGATATAC, the “PBM E-score” value is -0.00052.

With AATGGAGG, the “PBM E-score” value is -0.111.

With GCGACGGA, the “PBM E-score” value was found to be 0.258.

Turning to ACAGGAGG, the “PBM E-score” value was -0.266.

Consider ATAGAGCC, for which the “PBM E-score” value worked out at 0.145.

Regarding GTAGTAAA, the “PBM E-score” value amounted to 0.00051.

In the case of ACAACTAC, the “PBM E-score” value was -0.0374.

With GTCTTCAC, the “PBM E-score” value was determined as 0.0812.

Consider GGGGCCTA, for which the “PBM E-score” value is -0.108.

CTATCAAG: the “PBM E-score” value is -0.22.

As for GTCTTCCA, the “PBM E-score” value was -0.182.
